The other results are listed elsewhere or left out.
Legend:
HSkMC = human skeletal muscle cells; assay: cytotoxicity call (relative viability < 0.9); conditions: 10 µM
HepG2 = assay: cytotoxicity call (relative viability < 0.9); conditions: 10 µM
S. aureus RN4220 = assay: growth inhibition call (relative growth <= 0.2); conditions: 50 µM

Row | SMILES | cytotoxicity call (HSkMC) | cytotoxicity call (HepG2) | growth inhibition call (S. aureus RN4220)
1 | C[C@@H]1CN([C@H](C)CO)C(=O)c2cc(NC(=O)CCCN(C)C)ccc2O[C@H]1CN(C)Cc1ccncc1 | inactive | inactive | inactive
2 | C[C@@H]1CCCCO[C@@H](CN(C)Cc2ccc(C(F)(F)F)cc2)[C@@H](C)CN([C@H](C)CO)C(=O)c2cc(NC(=O)Nc3ccc(F)cc3)ccc2O1 | inactive | inactive | inactive
3 | C[C@@H]1CN([C@H](C)CO)C(=O)Cc2cc(NC(=O)Cc3cn(C)c4ccccc34)ccc2O[C@H]1CN(C)C(=O)Nc1ccc(C(F)(F)F)cc1 | inactive | inactive | inactive
4 | C[C@@H]1CN([C@H](C)CO)C(=O)Cc2cc(NC(=O)Nc3ccc(F)cc3)ccc2O[C@@H]1CN(C)Cc1ccc(C(=O)Nc2ccccc2N)cc1 | inactive | active | inactive
5 | CCC(=O)N[C@@H]1C=C[C@@H](CC(=O)OC)O[C@H]1CO | inactive | inactive | inactive
6 | Cn1cccc1[C@@H](CN)N1CCc2ccccc2C1 | inactive | inactive | inactive
7 | COc1ccc(S(=O)(=O)Nc2ccc3c(c2)C(=O)N([C@@H](C)CO)C[C@H](C)[C@H](CN(C)C(=O)Nc2c(C)noc2C)OCCCC[C@@H](C)O3)cc1 | inactive | inactive | inactive
8 | C[C@H]1CN([C@@H](C)CO)C(=O)c2cccc(NC(=O)NC3CCCCC3)c2O[C@H]1CN(C)Cc1ccc(-c2ccccc2)cc1 | inactive | inactive | inactive
9 | C[C@@H]1CCCCO[C@H](CN(C)S(=O)(=O)c2ccccc2)[C@H](C)CN([C@@H](C)CO)C(=O)c2cc(NS(C)(=O)=O)ccc2O1 | inactive | inactive | inactive
